The values below come from PMC4490944 (Journal of immunology (Baltimore, Md. : 1950), 2015).

This assay deals with Soluble extracellular domains of recombinant HLA-DR1 (DRA*0101/DRB1*010101), non peptide-loaded (human). The experiment in a line: fluorescence polarisation. On the technique in general: Polarisation of emitted light reports the rotation of a fluorescent probe.

No end group written: not given here. Alexa 488 = Alexa-488 fluorophore (from tetrafluorophenyl ester) on the Lys side-chain amine

Turning to Ac-VSK(Alexa 488)MRMATPLLMQ [Alexa488-labeled CLIP peptide (Ac-…)], the k2 (peptide binds active DR1 to give the transient complex MHCpep') was 900 M⁻¹ s⁻¹ and the k-2 (peptide leaves the transient complex MHCpep') was 0.029 min⁻¹.
